Test results as given in PubChem BioAssay AID1508624 (National Center for Advancing Translational Sciences (NCATS), 2021).
Among all 48,000 compounds or so, about 120 (0.25%) were called active. About 4% were inconclusive and are not listed. Calls come from the whole dose curve; as a rule, active = well fitted activation curve with a large enough effect; inconclusive = small, poorly fitted or top-dose-only effect, or another doubt; inactive = no such curve, though single readings can be large or run the other way. The list shows a part of the results.

assay: Primary qHTS for Identification of Small Molecule Activators of Huntingtin-Antisense Promoter Activity; conditions: HEK293 HTT-AS promoter firefly luciferase reporter (activity 0% = vehicle and -100% = no light), 24 h; series mostly up to 57.5 µM; activity change, positive = activation: at the top concentration; note: nearly all actives have a fitted effect of over 55% in size
Summary of the method: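 HEK293 luciferase promoter-reporter cells (2,500/well) plated 24 h, then compounds added at up to 57.5 uM final for 24 h at 37 °C. Firefly luminescence by Dual-Glo, normalized to vehicle (0%) and zero RLU (-100%).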

Activity change, positive = activation, inactive:
CCc1ccc(NCc2cc3ccc(OC)cc3n(CC(=O)Nc3c(C)cc(C)cc3C)c2=O)cc1 -1.2%, CCN(CC)C(C)CN1c2ccccc2Sc2ccccc21 (stereo unspecified) -1.11%, CCCNC(=O)NS(=O)(=O)c1ccc(Cl)cc1 -0.252%, CC(C)Oc1ccc(C(=O)N(Cc2ccc(N(C)C)cc2)C2CCS(=O)(=O)C2)cc1 (stereo unspecified) -7.97%, COc1ccc(Cl)cc1NC(=O)Cn1ccn(-c2cc(C)cc(C)c2)c(=O)c1=O -19.7%, Cn1nnc2c(N3CCN(c4ccc(F)cc4)CC3)ncnc21 9.2%, Cc1ccccc1CNC(=O)CCS(=O)(=O)c1cc2c3c(c1)CCN3C(=O)CC2 0.251%, CCOc1cccc(CNC(=O)c2ccc(N3CCCC3)c(NC(=O)NCc3ccccc3)c2)c1 -9.94%, Cc1ccc(N2CCN(C(=O)c3cc4cc5ccc(C)cc5nc4s3)CC2C)cc1 (stereo unspecified) 5.3%, Cc1ccc(Nc2sc(C(=O)c3ccccc3)c(N)c2S(=O)(=O)c2ccccc2)cc1Cl -12.9%, CCc1ccc(CNC(=O)Cn2nc(-c3ccc(C)cc3)ccc2=O)cc1 -6.78%, COc1ccccc1N1CCN(C(=O)CCS(=O)(=O)c2ccc3c(c2)oc(=O)n3C)CC1 -3.72%, CC1CCCN(CCCNC(=O)c2ccc3c(c2)N(Cc2ccc(Cl)cc2)C(=O)c2ccccc2S3(=O)=O)C1 (stereo unspecified) -26.7%, Cc1cc(OC(C)C(=O)N(Cc2ccc(N(C)C)cc2)Cc2ccco2)ccc1Cl (stereo unspecified) -22.8%, Cc1ccccc1C(=O)Nc1cccc(OCc2cc(=O)n3cccc(C)c3n2)c1 -28.9%, Cc1ccc(C)c(NC(=O)Cn2cc(S(=O)(=O)Cc3cccc(Cl)c3)c3ccccc32)c1 -17.2%, CCc1ccc(NC(=O)CN2C(=O)CSc3ccc(S(=O)(=O)N(C)C)cc32)cc1 1.73%, O=C(NCc1ccccc1)c1ccc2c(c1)CCN2S(=O)(=O)c1ccc(Cl)cc1 -12.1%, CCn1cc(C(=O)NCCc2ccc(OC)c(OC)c2)c(=O)c2cc(S(=O)(=O)N(C)C3CCCCC3)ccc21 -36.1%, CC(=O)O[C@]1(C(C)=O)CC[C@H]2[C@@H]3C=C(Cl)C4=CC(=O)CC[C@]4(C)[C@H]3CC[C@@]21C -17.9%, COc1ccc(-c2noc(CN(C(=O)C(C)Oc3ccc(C)cc3)C(C)C)n2)cc1 (stereo unspecified) -22.1%, COc1ccc2cc3c(N)nn(C(=O)c4ccccc4Cl)c3nc2c1 -27.6%, CCOc1ccc(NC(=O)N2CCN(c3ccc(Cl)c(Cl)c3)CC2)cc1 -22.9%, COc1ccc(CNC(=O)c2ccc(-c3nc(CSc4ccc(C)cc4)c(C)o3)cc2)c(OC)c1 -6.36%, Cc1cccc(CCNC(=O)c2cc3c(s2)-c2c(C)cccc2OC3)c1 -14.2%, Cc1ccc2c(c1)N(C(=O)Nc1cccc3c1CCCC3)CCO2 -8.3%, CCCN1CCN(C(=O)Cn2c(-c3cccs3)cc3cc(F)ccc32)CC1 -8.7%, CCOC(=O)c1c(NC(=O)CSc2cn(CCNC(=O)c3ccc(OC)cc3)c3ccccc23)sc2c1CCCC2 -56.9%, COc1ccc(C2c3c(n(C)c4ccccc34)C(=O)N2CC(=O)Nc2cccc(Cl)c2)cc1 (stereo unspecified) -27.1%, COc1ccc(-c2noc(CSc3nnc(C)n3-c3cccc(C)c3)n2)cc1 -31.1%, COc1cc(C(=O)NCCc2csc(-c3ccc(Cl)cc3)n2)cc(OC)c1OC -25.1%, COc1ccc(O)c(C2=Nc3ccccc3N=C(c3ccccc3)C2)c1 -5.52%, CCOC(=O)c1nc(Nc2ccc(C(=O)OC(C)C)cc2)c2ccccc2n1 2.86%, COc1ccccc1NC(=O)c1oc2ccccc2c1NC(=O)Cc1ccccc1 -5.24%, O=C(CN1C(=O)CC(c2ccccc2)=Nc2ccccc21)Nc1ccc(Br)cc1 -20.1%, CNC(=O)c1ccc2c(c1)N(Cc1cc(C)ccc1C)C(=O)c1ccccc1S2 -30.3%, Cc1nn(C)c2c1c(-c1ccccc1)cc(=O)n2CC(=O)NC(C)c1ccccc1 (stereo unspecified) -26.1%, CCCOc1ccc(C2c3c(-c4c(C)cc(C)cc4O)n[nH]c3C(=O)N2CCO)cc1 (stereo unspecified) -27.5%, Cc1ccc(Cl)cc1NC(=O)c1sc(-n2nc(C)c(Cc3ccc4c(c3)OCO4)c2C)nc1C -6.3%, CCN1CCOC(=O)C1CC(=O)Nc1ccc(Br)cc1 (stereo unspecified) -22.6%, CCOc1ccc(-c2cc3nc(C4CCN(C(=O)OC(C)(C)C)CC4)c(C(=O)Nc4cc(OC)ccc4OC)cn3n2)cc1 -2.44%, O=C(Cn1c(=O)n(Cc2ccccc2)c(=O)c2sc3ccccc3c21)Nc1ccccc1 -14.6%, CCCCCn1c(CN2CCN(c3ccc(OC)cc3)CC2)nc2c1c(=O)[nH]c(=O)n2C -18.2%, Cc1ccc(Cl)cc1NC(=O)Nc1cccc(OCc2cc(=O)n3ccccc3n2)c1 12.5%, COc1ccc(-n2c(-c3ccco3)nc3c(cnn3-c3ccccc3Cl)c2=O)cc1 -30.6%, O=C(CSc1cn(CC(=O)N2CCCCC2)c2ccccc12)Nc1ccccc1 -3.02%, COc1ccc(OC)c(C2=NS(=O)(=O)N(C)C(C(=O)Nc3ccc(F)cc3F)=C2)c1 -37.2%, N#Cc1nc(-c2ccc(COc3ccc(Cl)cc3)o2)oc1N1CCC(C(N)=O)CC1 -40.3%, Cc1ccc(C)c(NC(=O)C2CCCN(c3ncnc4onc(C)c34)C2)c1 (stereo unspecified) -16.2%, O=C(Cn1c(=O)n(-c2ccccc2)c(=O)c2c3c(sc21)CCCC3)Nc1ccc(F)cc1F -23.1%, COc1cccc(CNC(=O)c2cccc(-n3c(C)nc4cccnc43)c2)c1OC -12.7%, Cc1cc(=O)n(Cc2ccc(Cl)cc2)c2c1c(C)nn2-c1ccccc1 -4.77%, COc1ccc(OC)c(S(=O)(=O)NCCS(=O)(=O)N2CCN(c3ccccc3)CC2)c1 -28.4%, O=C(NCc1noc2ccccc12)N1CCN(c2ccccc2)CC1 2.15%, O=C(NCC(c1ccco1)S(=O)(=O)c1cccs1)c1ccc(F)c(F)c1 (stereo unspecified) 8.98%, CCc1ccccc1NC(=O)N1CCCn2nc(C)cc21 0.424%, Cc1nc(-c2ccccc2)sc1-c1ccc(SCC(=O)NCc2ccccc2Cl)nn1 13.2%, COc1ccc(OC)c(CNS(=O)(=O)c2ccc(-c3coc(C)n3)cc2)c1 -26.4%, CC(=O)c1cc(-c2ccccc2)n(CC(=O)Nc2ccc(C)c(C)c2)c1C -15.9%, CCOc1ccc(CNC(=O)CS(=O)(=O)c2cccc3nsnc23)cc1 -22.7%, COc1ccccc1-c1nc(SCC(=O)NCc2ccccc2)c2c(=O)n(C)c(=O)n(C)c2n1 -4.21%
